# Laboratory results published in patent publication US20110091470A1, “ANTI-FLT3 ANTIBODIES” (IMCLONE LLC, priority 2008, published 2011).
# Test system: FLT3 in selected human leukemia cell lines
# Details: BaF3-control cell line, FLT3-negative
substance,measurement,value
"EB10: recombinant human monoclonal antibody, full length IgG1κ targeting human FLT3; heavy chain SEQ ID NO 25, light chain SEQ ID NO 28",binding by flow cytometry (in words),No binding
